According to the RNAGym collection of RNA variant scans (doi:10.1093/nar/gkz1192):
Read counts are not given, so values of variants with three or more changes are uncertain.

B1: CPEB3 Ribozyme (parent)
chain: UAACAGGGGGCCACAGCAGAAGCGUUCACGUCGCAGCCCCUGUCAGAUUCUGGUGAAUCUGCGAAUUCUGCUGUAUAUCUC

Variants of: B1
Assay: self-cleavage, relative activity (ratio to wild type); higher = more cleavage; in vitro, sequencing
Outline: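 Relative activity compares each variant's cleaved/total read fraction with that of the unmutated ribozyme. To get these fractions, barcoded CPEB3 ribozyme libraries from rounds of error-prone PCR were transcribed with T7 RNA polymerase for 5 hours at 37°C and then given 15 min of DNase I treatment before EDTA was added. The RNAs were reverse transcribed with template switching and sequenced on Illumina, and DNA sequencing linked barcodes to variants. A minimum of 5 reads applied, and three batches were averaged.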

Variant	self-cleavage
AAACAGGGGGCCUCAGCAGAAGCGUUCACGUCGCAGCCCCUGUCAGAUCCUGGUGAACCUGCGAAUUCUGCUGUAUAUCUC [U1A A13U U49C U58C]	0.32
AAACAGGGGGCCUCAGCAGAAGCGUUCACGUCGCAGCCCCUGUCAGAUUCUGGUGAAUCUGCGAAUUCUGCUGUAUAUCCC [U1A A13U U80C]	1.27
AAACAGGGGGCCACGGCAGGAGCGUUCACGUCGCAGCCCCUGUCAGAUUCUGGUGAAUCUGCGAAUUCUGCUGAAUAUCUC [U1A A15G A20G U74A]	0.7
AAACAGGGGGCCACGGCAGAAGCGUUCGCGUCGCAGCCCCUGUCAGAUUCUGGCGAAUCUGCGAAUUCUGCUGUAUAUCUC [U1A A15G A28G U54C]	0.17
AAACAGGGGGCCACGGCAGAAGCGUUCACGUCGCUGCCCCUGUCAGACUCUGGUGAUUCUGCGAAUUCUGCUGUAUAUCUC [U1A A15G A35U U48C A57U]	0.12
AAACAGGGGGCCACGGCAUAAGCGUUCACGGCGCAGCCCCUGCCAGAUUCUGGUGAACCUGCGAAUACUGCUGUAUAUCUC [U1A A15G G19U U31G U43C U58C U67A]	0.11
AAACAGGGGGCCACGGCAGAAGCGUUCACGUCGCAGCCCCUGUCAGAUUCUGGUUAAUCUGCGAAUUCUGCUGUAUAUCUC [U1A A15G G55U]	1.03
AAACAGGGGGCCACGGCAGAAGCGUCCACGUCGCAGCACCUGUCAGAUUCUGGUGAGUCUGCGAAUUCAGCUGUAUAUCUC [U1A A15G U26C C38A A57G U69A]	0.09
AAACAGGGGGCCACGGCAGAAGCGUUCACGACGCAGCCCCUGUCAGAUUCUGGUGAAUCUGCGAAUUCUGCUGUAGUUCUC [U1A A15G U31A U76G A77U]	0.38
AAACAGGGGGCCACGGCAGAAGCGUUCACGCCGCAGCCCCUGUCAGAUUCUGGUGAAUCUGCGAAUUCUGCCGUAUAUCUC [U1A A15G U31C U72C]	1.07
AAACAGGGGGCCACUGCGGAAGCGUUCACGUCGCAGCCCCUGUCAGAUUCUGGUGAAUCUGCGAAUUCUGCUGUAUAUCUC [U1A A15U A18G]	0.42
AAACAGGGGGCCACUGCAGGAGCGUUCACGUCGCAGCCCCUGUCAGAUUCUGGUGAAUCUGCGAAUCCUGCUGUAUAUCUC [U1A A15U A20G U67C]	0.76
AAACAGGGGGCCACUGCAGUAGCGUUCACGUCGCAGCCCCUGUCAGAUUCUGGUGAAUCUGCGAAUUCUGCUGUAUAUCUC [U1A A15U A20U]	0.41
AAACAGGGGGCCACUGCAGAAGCGUUCACGUCGCGGCCCCUGUCAGACUCUGGUGAAUCUGCGAAUUCUGCUGUAUAUCUC [U1A A15U A35G U48C]	1.02
AAACAGGGGGCCACUGCAGAAGCGUUCACGUCGCAGCCCCUGUCUGAUUCUGGUGAAUCUGCGAAUUCUGCAGUAUAUCUC [U1A A15U A45U U72A]	0.33
AAACAGGGGGCCACUGCAGAAGCGUUCACGUCGCAGCCCCAGACAGAUUCAGGUGAAUCUGCGAAUCCCGCUGUAUAUCUC [U1A A15U U41A U43A U51A U67C U69C]	0.1
AAACAGGGGGCCACAGCCGAAGCGUUCACGUCGCAGCCCCUGUCAGAUUCUGGUGAUUCUGCGAAUUCUGCUGUAUAUCUC [U1A A18C A57U]	0.31

Variant	self-cleavage
AAACAGGGGGCCACAGCGGUUGCGUUCACGUCGCAGCCCCUGUCAGAUCCUGGUGAAUCUGCGAAUUCUGCUGCAUAUCUC [U1A A18G A20U A21U U49C U74C]	0.06
AAACAGGGGGCCACAGCGGUAGCGUUCACGUCGCAACCCCUGCCAGAUUCUGGUGGAUCUGCGAAUUCUGCUGUAUAUCUC [U1A A18G A20U G36A U43C A56G]	0.03
AAACAGGGGGCCACAGCGGAAGCGUUCACGUCGCGGCCCCUGUCGGAUUCUGGUGAAUCUGCGAAUUCUGCUGUAUAUCUC [U1A A18G A35G A45G]	0.64
AAACAGGGGGCCACAGCGGAAGCGUUCACGUCGCGGCCCCUGUCAGAAUCUGGUGAAUCUGCGAAUUCUGCUGUAUAACUC [U1A A18G A35G U48A U78A]	0.34
AAACAGGGGGCCACAGCGGAAGCGUUCACGUCGCAGCCCCUGUCGGAUUCUGGUGAAUCUGCGAAUUCUGCUGUAUAUCUC [U1A A18G A45G]	0.48
AAACAGGGGGCCACAGCGGAAGCGUUCACGUCGCAGCCCCUGUCAGGUCCAGGUGAAUCUGCGAAUUCUGCUGUAUAUCUC [U1A A18G A47G U49C U51A]	0.2
AAACAGGGGGCCACAGCGGAAGCGUUCACGUCGCAGCCCCUGUCAGAUUCUGGUGUAUCUGCGAAUUCUGCUGUAUAUCUC [U1A A18G A56U]	0.3
AAACAGGGGGCCACAGCGGAAGCGUUCACGUCGCAGCCCCUGUCAGAUUCUGGUGUAUCUGCGAAUUCAGCUGUAUAUCUC [U1A A18G A56U U69A]	0.34
AAACAGGGGGCCACAGCGGAAGCGUACACGUCGCAGCCCCUGUCGGAUUCUGGUGAAUCUGCGAAUUCUGCUGUAUAUCUC [U1A A18G U26A A45G]	0.25
AAACAGGGGGCCACAGCGGAAGCGUCCACGUCGUAGCCCCUGUCAGAUUCUGGUGAGUCUGCGAAUUCUGCCGUAUAUCUC [U1A A18G U26C C34U A57G U72C]	0.04
AAACAGGGGGCCACAGCGGAAGCGUCCACGUCGCAGCCCCUGUCAGAUUCUGGCGAAUCAGCGAAUUCUGCUGUAUAUCUC [U1A A18G U26C U54C U60A]	0.17
AAACAGGGGGCCACAGCUGAUGCGUUCACGGCGCAGCCCCUGUCUGAUUCUGGUGAAUCUGCGAAUCCUGCUGUAUAUCUC [U1A A18U A21U U31G A45U U67C]	0.13
AAACAGGGGGCCACAGCUGAAGCGUUCACGUCGCAGCCCCUGUCAGAUUCUGGUGAAUCUGCGAGUUCUGCUGUAUAUCUC [U1A A18U A65G]	0.33
AAACAGGGGGCCACAGCUGAAGCGUUCACGUCGCAGCCCCUGUCAUAUUCUGGUGAAUCUGCGAAUUCUGCUGUGUAUCUC [U1A A18U G46U A75G]	0.08
AAACAGGGGGCCACAGCUGAAGCGAUCACGUCGCAGCCCCUGUCAGAUUCUGGUGAAUCUGCGGAUUCUGCUGUAUAUCUC [U1A A18U U25A A64G]	0.18
AAACAGGGGGCCACAGCUGAAGCGUUCACGACGCAGCCCCUGUCAGAUUCUGGUGAAUCUGCGAAUUCUGCUGUAUAUCUC [U1A A18U U31A]	0.15
AAACAGGGGGCCACAGCAGCAGCGUUCACGUCGCAGCCCCUGUCGGAUUCUGGUGGAUCUGCGAAUUCUGCUGCAUAUCUC [U1A A20C A45G A56G U74C]	0.27
